# Hit rate of the full screen: of about 310,000 compounds, about 2,200 (0.71%) showed an effect of 50% or more. The effect is printed as a negative number. This is one part of the list.
# Target: human ether-à-go-go-related gene (hERG) potassium channel (human, UniProt Q12809)
# Assay: primary screen, population patch clamp on CHO cells stably expressing hERG
# Sequence of human ether-à-go-go-related gene (hERG) potassium channel (Q12809 whole entry, looked up): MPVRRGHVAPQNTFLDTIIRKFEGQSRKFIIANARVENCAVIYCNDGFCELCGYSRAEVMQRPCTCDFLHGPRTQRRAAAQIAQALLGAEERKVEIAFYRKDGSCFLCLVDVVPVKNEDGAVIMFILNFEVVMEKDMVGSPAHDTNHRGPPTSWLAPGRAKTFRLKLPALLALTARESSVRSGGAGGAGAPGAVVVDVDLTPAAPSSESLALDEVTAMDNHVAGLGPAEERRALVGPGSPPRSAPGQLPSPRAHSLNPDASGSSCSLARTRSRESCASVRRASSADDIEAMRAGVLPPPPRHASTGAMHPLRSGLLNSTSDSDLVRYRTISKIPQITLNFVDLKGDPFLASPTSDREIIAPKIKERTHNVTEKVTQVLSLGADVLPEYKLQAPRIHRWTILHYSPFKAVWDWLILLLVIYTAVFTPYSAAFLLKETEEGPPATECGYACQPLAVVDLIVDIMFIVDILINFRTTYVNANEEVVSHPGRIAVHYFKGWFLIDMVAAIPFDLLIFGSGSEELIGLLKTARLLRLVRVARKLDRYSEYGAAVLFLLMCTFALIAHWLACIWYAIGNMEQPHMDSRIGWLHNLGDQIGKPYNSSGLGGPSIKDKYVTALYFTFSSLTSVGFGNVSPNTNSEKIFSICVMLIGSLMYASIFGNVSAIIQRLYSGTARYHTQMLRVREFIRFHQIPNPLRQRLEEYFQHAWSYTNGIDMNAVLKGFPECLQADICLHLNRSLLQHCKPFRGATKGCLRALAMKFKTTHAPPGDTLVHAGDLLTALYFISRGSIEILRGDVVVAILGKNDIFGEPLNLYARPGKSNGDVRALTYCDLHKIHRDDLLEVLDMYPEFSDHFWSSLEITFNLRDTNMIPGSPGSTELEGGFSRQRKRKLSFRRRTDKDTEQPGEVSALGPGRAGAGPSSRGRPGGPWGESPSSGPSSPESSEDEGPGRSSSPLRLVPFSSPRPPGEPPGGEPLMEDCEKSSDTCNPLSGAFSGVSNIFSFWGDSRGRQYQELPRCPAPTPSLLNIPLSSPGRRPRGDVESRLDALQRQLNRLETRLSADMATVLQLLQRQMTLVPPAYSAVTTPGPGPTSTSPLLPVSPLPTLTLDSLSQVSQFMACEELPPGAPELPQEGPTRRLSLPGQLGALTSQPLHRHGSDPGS
row,SMILES,"hERG current change (%, negative = inhibition) at 1uM"
1,CCn1c(SCC(=O)N(C)CCC#N)nc2cc(S(=O)(=O)N3CCOCC3)ccc21,15.2%
2,CCn1nc(C(=O)OCC(=O)c2cc(C)n(Cc3cccs3)c2C)c2ccccc2c1=O,12.3%
3,CC(C)(C)OC(=O)N/N=C\c1ccc[nH]1,10.1%
4,O=C(C1CCCC1)N1CCN(S(=O)(=O)c2ccc(F)c(F)c2F)CC1,9.66%
5,COC(=O)c1cc(NS(=O)(=O)c2ccc(C)c3ccccc23)ccc1N1CCOCC1,5.1%
6,COc1ccc(OC)c2[nH]c(=O)c(CCNC(=O)c3ccc4c(c3)OCO4)cc12,9.06%
7,NNC(=O)c1sc2cc(C(F)(F)F)cnc2c1-c1cccs1,18.8%
8,CCOC(=O)[C@H]1[C@H]2COc3cc(OC)ccc3[C@@H]2N2C(=O)N(c3cccc(Cl)c3)C(=O)[C@@]12C,5.19%
9,O=S(=O)(c1ccc(Br)cc1)N1CCCc2ccccc21,10.4%
10,O=C(CN1CCN(C(=O)N2CCOCC2)CC1)Nc1ccc(Br)cc1,-7.33%
11,O=c1[nH]c(NCc2ccco2)nnc1Cc1ccccc1Cl,10.7%
12,Cc1nn(Cc2ccccc2)c(=O)c2nn(-c3ccc(Cl)cc3)c(C)c12,10.9%
13,O=C(OCC(=O)N1CCCc2ccccc21)c1ccc(C(F)(F)F)cc1,-1.32%
14,Cc1cc2c(cc1C)NC1(C(=O)Nc3ccccc31)C1=C(CC(C)(C)CC1=O)N2 (stereo not shown),9.28%
15,COc1ccc(N2C(=NC(=O)CCC3CCCC3)SC3CS(=O)(=O)CC32)cc1 (stereo not shown),16.2%
16,COc1ccccc1NS(=O)(=O)c1ccc(Cl)cc1,4.63%
17,CCCOCC1CC2(SC(=Nc3ccc(C)cc3)NC2=O)C(=O)O1 (stereo not shown),9.97%
18,Cn1c(=O)c(=O)n(C)c2cc(N3CCCC3)c(NS(=O)(=O)c3ccc(Cl)cc3)cc21,-18.4%
19,Cc1cc(/C=C2\NC(=S)NC2=O)c(C)n1-c1cccnc1,8.06%
20,C=C(C)[C@@H]1[C@H]2OC(=O)[C@@H]1[C@]1(O)C[C@H]3O[C@]34C(=O)O[C@H]2[C@]14C.CC(C)(O)[C@@H]1[C@H]2OC(=O)[C@@H]1[C@]1(O)C[C@H]3O[C@]34C(=O)O[C@H]2[C@]14C,0.134%
21,COc1cc(NS(=O)(=O)c2ccc(NC(=S)NC(=O)c3sc4ccccc4c3Cl)cc2)nc(OC)n1,2.44%
22,CCCn1nnc(NC(=O)c2cccnc2Cl)n1,12%
23,COCCN1CN=C(Nc2nc3ccccc3o2)NC1,11%
24,COC(=O)C1=C(C)N(C)C(=O)NC1c1cc(Cl)cc(Cl)c1OC (stereo not shown),-1.95%
25,O=C(O)CC/C(=C\c1ccc(N2CCCC2)c([N+](=O)[O-])c1)c1nc2ccccc2s1,24.9%
26,Cc1onc(-c2c(F)cccc2Cl)c1C(=O)NCCO,4.8%

row,SMILES,"hERG current change (%, negative = inhibition) at 1uM"
1,Cc1ccc2c(c1)N(CC(=O)N1CCN(c3nc4ccccc4s3)CC1)C(=O)C(C)O2 (stereo not shown),-8.35%
2,CCN1CCN(S(=O)(=O)c2cc(C)c(OC)cc2C)CC1,5.91%
3,CCCn1ncc(CN2CCC(N3CCC(C(=O)N4CCOCC4)CC3)CC2)c1C,5.56%
4,COc1ccc(/C=N\Nc2ccc([N+](=O)[O-])cc2[N+](=O)[O-])c(C(=O)O)c1OC,-4.14%
5,O=C(O)c1cc(N2CCOCC2)nc2ccccc12,12.5%
6,COc1c2c(nc3ccccc13)OC(C(C)(O)COC(C)=O)C2 (stereo not shown),-5.16%
7,CCOC(CNC(=O)c1ccc(N2CCc3ccccc32)c([N+](=O)[O-])c1)OCC,-5.37%
8,CC(=O)O.N=c1ccn2c(n1)OC1C(O)C(CO)OC12 (stereo not shown),8.06%
9,NC(=O)C1=C[C@H](c2coc3ccccc3c2=O)C[C@H](OCc2ccc(CO)cc2)O1,11.4%
10,Cc1csc(SC(C)C(=O)Nc2ccc3c(c2)OCCO3)n1 (stereo not shown),8.06%
11,COc1ccc(C(=O)OCC(=O)Nc2cc(C)on2)cc1S(=O)(=O)N1CCOCC1,3.14%
12,CCCC(=O)N(CCc1ccc(OC)cc1)Cc1nc2ccccc2c(=O)[nH]1,-4.11%
13,CCOc1ccc(Cl)cc1Nc1nc(NCCO)nc(N2CCCC2)n1,5.92%
14,Cc1cccc(CNC(=O)Cn2ccc3cc(S(=O)(=O)N4CCCCCC4)ccc32)c1,17.2%
15,Cc1ccc(NC(=O)CS(=O)(=O)c2cn(CC(=O)N3CCOCC3)c3ccccc23)cc1,9.48%
16,O=C(COc1ccc2c(c1)oc(=O)c1ccccc12)N[C@@H](Cc1c[nH]c2ccccc12)C(=O)O,14.8%
17,CCOC(=O)c1cc(C#N)c(N2CCN(C(=O)c3cccc(C(F)(F)F)c3)CC2)nc1C(F)(F)F,9.92%
18,Cc1ccccc1SCc1noc(C(=O)NCC2CCCO2)c1C(=O)O (stereo not shown),14%
19,Cc1cc(F)ccc1S(=O)(=O)N1CCCOC1CNC(=O)C(=O)NCC(C)C (stereo not shown),1.4%
20,Cn1c(SCC(=O)N2CCOCC2)nnc1-c1cccc(NC(=O)c2ccccc2)c1,12.3%
21,COc1ccc(CNCc2cccc(Oc3ccccc3)c2)cc1,-0.928%
22,CCOC(=O)COc1ccc(C(=O)NC2CCCCC2)cc1,6.15%
23,c1coc(-c2nnc(-c3ccco3)nn2)c1,15.6%
24,Cc1ccc(C(NC(N)=O)c2ccccc2)cc1 (stereo not shown),10.2%
25,C[C@@]12C(=O)N(c3cccc(Br)c3)C(=O)N1[C@H](c1ccc(Cl)cc1)[C@@H]1C(=O)N(C3CCCCC3)C(=O)[C@@H]12,9.64%
26,O=P(/C(=N/O)Sc1ccccc1)(N1CCOCC1)N1CCOCC1,-19.2%

# From publication PMC4336329 (PLoS ONE, 2015)
